# Measurements as given in PMC4336329 (PLoS ONE, 2015).
# The whole screen tested about 310,000 compounds, of which about 2,200 (0.71%) showed an effect of 50% or more. Effects have a minus sign here. The list shows a part of the results.
# Target: human ether-à-go-go-related gene (hERG) potassium channel (human, UniProt Q12809)
# Test: primary screen, population patch clamp on CHO cells stably expressing hERG
# Chain of human ether-à-go-go-related gene (hERG) potassium channel (Q12809 whole entry, looked up): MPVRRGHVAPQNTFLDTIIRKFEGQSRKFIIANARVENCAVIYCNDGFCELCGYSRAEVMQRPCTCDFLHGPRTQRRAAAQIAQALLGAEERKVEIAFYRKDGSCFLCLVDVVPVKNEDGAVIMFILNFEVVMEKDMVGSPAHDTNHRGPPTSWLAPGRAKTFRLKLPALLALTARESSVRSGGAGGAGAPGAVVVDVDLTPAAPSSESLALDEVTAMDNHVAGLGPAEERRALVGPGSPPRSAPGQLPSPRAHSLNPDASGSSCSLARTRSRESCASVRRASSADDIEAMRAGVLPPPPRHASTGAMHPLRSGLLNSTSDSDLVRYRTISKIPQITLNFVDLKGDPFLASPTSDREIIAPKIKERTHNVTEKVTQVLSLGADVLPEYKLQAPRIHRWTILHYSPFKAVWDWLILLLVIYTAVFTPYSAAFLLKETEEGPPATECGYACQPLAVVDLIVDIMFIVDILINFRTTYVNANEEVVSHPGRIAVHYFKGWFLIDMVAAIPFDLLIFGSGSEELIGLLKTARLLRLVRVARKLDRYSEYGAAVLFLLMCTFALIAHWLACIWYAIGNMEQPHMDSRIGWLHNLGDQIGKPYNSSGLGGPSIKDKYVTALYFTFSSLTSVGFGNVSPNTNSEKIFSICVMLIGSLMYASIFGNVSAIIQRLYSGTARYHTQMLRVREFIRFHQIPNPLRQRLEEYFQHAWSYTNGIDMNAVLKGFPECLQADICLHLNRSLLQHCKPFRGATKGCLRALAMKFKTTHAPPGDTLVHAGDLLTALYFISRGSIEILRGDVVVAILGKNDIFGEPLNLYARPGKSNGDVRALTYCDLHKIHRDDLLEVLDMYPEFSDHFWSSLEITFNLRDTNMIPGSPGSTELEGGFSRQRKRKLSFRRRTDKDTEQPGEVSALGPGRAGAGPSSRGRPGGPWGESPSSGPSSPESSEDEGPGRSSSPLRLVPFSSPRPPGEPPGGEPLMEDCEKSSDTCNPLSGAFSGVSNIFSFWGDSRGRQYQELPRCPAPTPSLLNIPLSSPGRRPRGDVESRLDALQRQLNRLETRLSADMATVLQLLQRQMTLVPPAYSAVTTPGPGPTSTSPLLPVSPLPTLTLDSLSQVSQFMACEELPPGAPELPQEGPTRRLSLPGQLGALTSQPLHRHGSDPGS
row,SMILES,"hERG current change (%, negative = inhibition) at 1uM [%]"
1,Fc1c(F)c(C(F)(F)F)c(F)c(F)c1N/N=C\c1cccs1,16.6
2,O=C(Nc1ccccc1Cl)c1cc(S(=O)(=O)N2CCCCC2)ccc1N1CCOCC1,-5.21
3,COc1ccc2[nH]c(C(=O)O)c(NC(=O)c3ccccc3[N+](=O)[O-])c2c1,10.2
4,CCOC(=O)c1ccc(NC(=O)c2cc3ccccc3o2)cc1,-1.6
5,COc1cccc(-c2noc(-c3cccs3)n2)c1,4.78
6,C/C(=N\NC(=O)c1cccc(Br)c1)c1ccccn1,3.09
7,COc1ccccc1C(CCNS(=O)(=O)c1ccc(C)cc1)c1ccco1 (centres unmarked),10.3
8,Cc1ccnc(Cc2ccccc2)n1,10.1
9,COc1ccc(-c2cc(C(=O)N3CCN(c4ccccc4OC)CC3)no2)cc1,17.6
10,COc1ccc(NC(=O)C2CC(=O)OC23CCCCC3)cc1 (centres unmarked),7.71
11,COc1ccccc1-n1nnnc1SCC(=O)Nc1ccc(C)c(N)c1,12.1
12,O=C1CC(c2c[nH]c3ccccc23)C(=O)N1 (centres unmarked),8.36
13,O=C(NCCN1CCN(c2ccccc2)CC1)Nc1cccc(Cl)c1,8.45
14,C/C(=N/NC(=O)CNC(=O)COc1cccc(C)c1)c1ccc(Cl)cc1,18.5
15,Nc1nc(N)c(N=Nc2ccc(Cl)cc2)c(=O)[nH]1,12.5
16,COc1cccc(/C=C/C(=O)c2ccc(NC3=NCCCS3)cc2)c1,7.27
17,NS(=O)(=O)c1ccc(CCNC(=O)C2CCC(CNS(=O)(=O)c3ccc(Br)s3)CC2)cc1 (centres unmarked),15.6
18,Cc1cc(NS(=O)(=O)c2c(C)c(C)cc(C)c2C)no1,-3.16
19,CCn1nnc(NC(=O)c2ccc(Br)o2)n1,19.8
20,Cn1nc(C(=O)Nc2nc(-c3ccc(F)cc3)cs2)ccc1=O,8.27
21,O=C(Cn1nc(Cc2cccnc2)c2ccccc2c1=O)NCc1ccc2c(c1)OCO2,0.905
22,CC1CCN(c2ccc(NC(=O)c3cccnc3)cc2)CC1,8.05
23,COc1ccc(NC(=O)Nc2ccc3c(c2)N(C)C(=O)CS3)cc1Cl,4.06

row,SMILES,"hERG current change (%, negative = inhibition) at 1uM [%]"
1,Cc1ccc(C(c2nnnn2C2CCCCC2)N2CCc3ccccc32)cc1 (centres unmarked),3.37
2,CCC1Oc2ccc(C)cc2N(CC(=O)NCCN2CCOCC2)C1=O (centres unmarked),16.6
3,Cc1nc2c(n1C1CCCCC1)C(=O)c1ccccc1C2=O,19.1
4,COc1ccc(C(=O)NCc2nnc(SCC(=O)c3ccccc3)n2C)cc1,-3.12
5,Cc1c(C(=O)N2CCCCC2)c(S(=O)(=O)N2CCN(c3ccccc3F)CC2)c(C)n1C,14.6
6,COc1ccc(N2CCN(C(=O)C3CCN(S(=O)(=O)c4cccs4)CC3)CC2)cc1,6.87
7,O=C(OCC1CC(c2ccccc2Cl)=NO1)c1ccc(Br)cc1 (centres unmarked),14.5
8,Cc1c(C(=O)N2CCN(c3ccccc3)CC2)sc2nc3n(c(=O)c12)CCC3,16.6
9,CCCCNC(=O)c1ccc2c(c1)S(=O)(=O)c1ccccc1C2=O,2.68
10,Cc1ccc(NC(=O)CS(=O)Cc2nc(-c3ccc(C)cc3)oc2C)cc1 (centres unmarked),-6.18
11,Cc1nn(-c2ccccc2)c(Cl)c1/C=C/C(=O)c1ccc(O)cc1,12
12,Cc1[nH]c2ccc(Br)cc2c(=S)c1C/C=C/Cl,5.3
13,O=C(NC(=S)Nc1ccc(Cl)cc1Cl)C1CC1,8.58
14,Cc1cc(C(=O)OCC(=O)NCc2ccco2)c(C)n1-c1ccccc1,16.3
15,CCCCCCCN1CCC(=O)N([C@H](CO)c2ccccc2)CC1,-25.8
16,O=C1CC[C@H](O)CCN1[C@H](CSc1ccccc1)Cc1ccccc1,8.42
17,CC(OC(=O)c1ccncc1)C(=O)Nc1ccc([N+](=O)[O-])cc1Cl (centres unmarked),-16.4
18,CCN1CCOC(CC(=O)Nc2cccc([N+](=O)[O-])c2)C1=O (centres unmarked),3.36
19,CCC(C(=O)OCC(=O)Nc1cc(Cl)cc(Cl)c1)c1ccccc1 (centres unmarked),24
20,COc1ccc(NC(=O)CSc2cc(C(=O)c3nccn3C)c3ccccc3n2)cc1,13.8
21,NC(=O)c1coc(-c2ccccc2)n1,12.3
22,CCC(C)NC(=O)CC(NS(=O)(=O)c1ccc(Cl)cc1)c1ccco1 (centres unmarked),6.27
23,Cc1noc(C)c1COc1ccc(C(=O)OCC(=O)c2ccc3c(c2)OCCO3)cc1,6.25

row,SMILES,"hERG current change (%, negative = inhibition) at 1uM [%]"
1,Cc1cc(C)cc(S(=O)(=O)c2cn(C)c3cc(N4CCN(C)CC4)c(F)cc3c2=O)c1,3.36
2,COCCN(C(=S)Nc1cccc(C)c1)C(C)c1cccnc1 (centres unmarked),3.39
3,Cc1ccc(N(CCC#N)C(=O)COC(=O)C2CCN(S(=O)(=O)c3ccc4c(c3)OCCO4)CC2)cc1,13.5
4,CCc1cc2c3c(c1)C(C)CC(C)(C)N3C(=O)/C2=C1\SC(=O)NC1=O (centres unmarked),11.9
5,CC1(C)CC(=O)C2=C(C1)Nc1cc(C(=O)c3ccccc3)ccc1NC2c1ccccn1 (centres unmarked),11.7
6,COc1ccc(C(=O)Nc2ccccc2C(=O)NC(C(=O)NCc2ccco2)C(C)C)cc1 (centres unmarked),3.01
7,COc1ccc(NC(=O)CCCCCn2nnc3ccccc3c2=O)cc1,14.5
8,O=C(NCC1CCCCC1)c1ccc(Cl)nc1,17.4
9,COc1cccc(-c2ccc(SCC(=O)c3ccccc3)nn2)c1,-1.66
10,CCC(=O)c1ccc(OCC(O)CN2CCN(c3cccc(C(F)(F)F)c3)CC2)cc1 (centres unmarked),10.2
11,COc1ccc(Cc2nnc(NC(=O)c3ccc(OC)c(OC)c3)s2)cc1,14.3
12,COC(=O)c1sc(-c2ccccc2)cc1NC(=O)c1ccc(OC)cc1,17
13,CCc1noc(C)c1C(=O)Oc1ccc(N(C)S(=O)(=O)c2ccccc2)cc1,6.65
14,CC(CNC(=O)c1cccc(Br)c1)n1cncn1 (centres unmarked),13.4
15,COc1ccc(S(=O)(=O)N2CCC(C(=O)NC3CCCCC3)CC2)cc1C,8.1
16,C[C@H](NC(=O)c1ccco1)C(=O)Nc1ccc(S(=O)(=O)N2CCCC2)cc1,5.53
17,COC(=O)c1ccc(N2CCN(S(=O)(=O)c3ccc(Br)cc3)CC2)c([N+](=O)[O-])c1,13
18,CCN(CC)CCCNc1nc2ccccc2[nH]1,13
19,Cc1ccc(-n2ncc3c(Nc4c(C)n(C)n(-c5ccccc5)c4=O)ncnc32)c(C)c1,8.86
20,CCOC(=O)CSc1nnc(CNc2ccc(F)cc2)o1,2.69
21,Cc1ccc(S(=O)(=O)N(CC(O)CN2CCOCC2)c2cccc([N+](=O)[O-])c2)cc1 (centres unmarked),2.27
22,CC(C)(C)c1ccc(Cn2ccc(-c3ccc4c(c3)OCO4)n2)cc1,10
23,N#Cc1cc(-c2ccccc2)cnc1Sc1ccc(Cl)cc1,-17.2

row,SMILES,"hERG current change (%, negative = inhibition) at 1uM [%]"
1,C=CCNc1scc(-c2ccccc2)[n+]1CC=C.[Br-],0.81
2,Cc1ccccc1Cn1nnc(-c2cccc(C(=O)O)c2)n1,5.51
3,O=C(NCC1(c2ccccc2)CCCC1)c1ccc(Br)cc1,8.41
4,CCC(=O)Nc1nonc1-c1nc2ccccc2n1CC(C)C,-5.27
5,Cc1cccc(NC(=O)c2cnc3n(c2=O)CCS3)c1,-0.584
6,NC(=O)CC(NC(=O)Cc1ccc(Br)cc1)c1ccc(N2CCC(N3CCCCC3)CC2)c([N+](=O)[O-])c1 (centres unmarked),17.3
7,Oc1cccc(/C=N/N2CCCCC2)c1O,7.04
8,Nc1nonc1C(=O)NCCNC(=O)c1ccccc1F,7.28
9,COC(=O)c1cn(C(=O)c2cccc(Br)c2)c2ccccc12,7.93
10,CCOc1cc(C(=O)NCc2nnc(SCC(=O)OC)n2C)cc(OCC)c1OCC,1.33
11,C[C@H]1CCC[C@@]2(O[C@@H](CCO)C[C@H](O)[C@H]2O)O1,16.4
12,COc1ccc(CC(=O)NCCc2ccc(S(N)(=O)=O)cc2)cc1,14.4
13,COC(=O)c1cccc(N(CC(=O)NC2CCCC2)C(=O)CNC(=O)c2cccs2)c1,12.3
14,Cn1nc(C(C)(C)C)cc1C(=O)NNC(=O)c1cccc(Cl)c1,12.9
15,COC(=O)C1=C(Nc2ccc(C)cc2)C=C(C)C(C(=O)OC)C1c1cccc(OC)c1 (centres unmarked),1.77
16,COc1cccc(Nc2nnc(Cc3cccnc3)c3ccccc23)c1,-83.2
17,CCOC(=O)N1CCN(CC(O)COc2ccccc2C(C)C)CC1.Cl (centres unmarked),6.1
18,COCCCNCCOc1ccc(C(C)(C)c2ccccc2)cc1.O=C(O)C(=O)O,-2.99
19,CC(OC(=O)C1CCC(=O)N1)C(=O)Nc1cc(Cl)cc(Cl)c1 (centres unmarked),5.74
20,CN(CC(=O)N1CCN(c2ccccn2)CC1)S(=O)(=O)c1ccccc1,6.61
